69 compounds from PubChem BioAssay AID1362 (SRMLSC, 2008) can be followed below.

Some of the results follow. Further columns of the screen follow, without active or inactive calls. The list favours compounds with an active or inconclusive main result.

A short description of the test: growth inhibition of WT strain, primary screen, mitochondrial fusion inhibitor project, WT and mutant strains, chemical genetic (AID 1362). Note: tested in S. cerevisiae. Conditions: mitochondrial fusion phenotypic screen, at 10 µM.
`Cc1nc(N2CCCCC2)c2c(-c3cccs3)csc2n1`: the inhibition worked out at 17.4%.
Turning to `O=C(NCc1nnc(SCc2ccc(C(F)(F)F)cc2)n1-c1ccccc1)C12CC3CC(CC(C3)C1)C2`, the inhibition is 14.4%.
For `O=C1c2ccccc2-c2n[nH]c(=O)c3ccc(N4CCCCC4)c1c23`, the inhibition amounted to 30.2%.
Consider `O=C(COc1ccc(Cl)cc1Cl)NCCCCc1ccccc1`, for which the inhibition worked out at 43.6%.
For the compound `c1ccc(N(c2ccccc2)c2nc(N3CCCC3)nc(-n3ccnc3)n2)cc1`, the inhibition came to 25%.
Regarding `O=C1Nc2ccccc2/C1=N\N=C\C1=C(N2CCOCC2)C(=C\c2ccccc2)/CC1`, the inhibition was found to be 45.9%.
With `CN=C(Nc1cc(Cl)ccc1Cl)SC1CC(=O)N(c2ccc(C(=O)OC)cc2)C1=O` (centres undefined), the inhibition was determined as 40%.
The result for `Cc1nc(N2CCCCC2)c2c(C)c(C(=O)Nc3cccc(C(F)(F)F)c3)sc2n1` reads 8.83%; that for `Cc1cccc(NC(=O)c2cc3n(n2)C(C(F)(F)F)CC(c2ccc4c(c2)OCO4)N3)c1` (centres undefined), 45%; that for `S=C(NCCc1ccccc1)NC1CCCCCC1`, 60.7%.
With `COc1ccc(NC(=O)c2cc3n(n2)C(C(F)(F)F)CC(c2ccc4c(c2)OCO4)N3)cc1OC` (centres undefined), the inhibition amounted to 50%.
With `COc1ccc(-c2nnc3n(CCc4ccccc4)c(=O)c4ccccc4n23)c(OC)c1`, the inhibition was determined as 93.4%.
On to `COc1ccc(/C=N/Nc2cc(N3CCCC3)nc(N3CCCC3)n2)cc1`, for which the inhibition was found to be 63%.
As to `S=C(NCC1CCCO1)N1CCN(c2nc(-c3ccc(Cl)cc3)cs2)CC1` (centres undefined), the inhibition is 36.8%.
On to `O=C1c2ccccc2C(=O)c2cc(S(=O)(=O)Nc3ccccc3)ccc21`, for which the inhibition stood at 25.8%.
In the case of `COc1ccc(/C=N/NC(=O)c2ccn[nH]2)cc1COc1ccc(Cl)cc1Cl`, the inhibition is -4.76%.
`CCCSc1nc(NCc2ccco2)c2c3c(sc2n1)COC(C)(C)C3`: the inhibition came to 40.2%.
The result for `CC(NCC(O)COC1CCC(C(C)(C)C)CC1)c1ccccc1` (centres undefined) reads 61.6%; that for `CCNC(=S)N/N=C(\C)c1ccc2ccccc2c1`, 63%.
Turning to `N#CC1=C(N)SC(N)=C(C#N)C1c1c(Cl)cccc1Cl`, the inhibition was -1.3%.
Take `CCOc1cc(/C=C2\SC(=S)N(Nc3ccccc3)C2=O)ccc1O`: the inhibition came to 60%.
As for `Cc1ccccc1Nc1cc(C)c2c(O)cccc2n1`, the inhibition amounted to 40.8%.
For the compound `O=C(/C=C/c1ccco1)Nc1cccc(NC(=O)/C=C/c2ccco2)n1`, the inhibition was determined as 51.4%.
For `OCCN(CCO)CC(O)COc1ccc(C23CC4CC(CC(C4)C2)C3)cc1` (centres undefined), the inhibition worked out at 25.5%.
`O=C(Nc1ccc(NC(=S)NC(=O)c2ccccc2F)cc1)c1cccs1`: the inhibition was found to be 31.2%.
The result for `CCOc1ccc2nc(NC(=O)c3ccoc3C)sc2c1` reads 78.3%; that for `CN1CCN(c2ccc(-c3ccc4ccccc4n3)cc2)CC1`, 64.8%; that for `CC(/C=C/c1ccccc1)=N\NC(=S)NC(C)C`, 68.2%.
Consider `Cc1cc(C(C)(C)C)ccc1OCCn1ccnc1`, for which the inhibition is 69.1%.
Turning to `C/C(=N/Nc1cc(-c2ccccc2)nc(-c2ccccc2)n1)c1ccc(O)cc1`, the inhibition was determined as 77.2%.
The value for `Fc1ccc(-c2csc3ncnc(N4CCc5ccccc5C4)c23)cc1` was -24.2%; that for `Cc1ccc(OCC(=O)NNC(=S)NC(=O)C(C)(C)C)c(Br)c1` was 82.2%.
For the compound `Fc1ccccc1Nc1nc2c(s1)CCc1ccccc1-2`, the inhibition was 13.5%.
On to `O=C(CCCSc1ccccc1)Nc1nc(-c2ccccn2)cs1`, for which the inhibition was 66.5%.
`CC1(C)CC(c2nc(-c3ccccc3)cs2)CCS1` (centres undefined): the inhibition is 17.3%.
Take `O=C(Cc1ccc(Cl)cc1)NC(=S)Nc1ccccc1N1CCOCC1`: the inhibition was determined as 7.08%.
The value for `CC(C)CCn1c(O)c(N=Nc2ccccn2)c2ccccc21` was 18.7%.
Consider `CCOC(=O)/C(=C\c1ccc(OC(F)F)cc1)C1=Nn2c(nnc2-c2ccc(Cl)cc2)SC1`, for which the inhibition turned out to be 14.3%.
For `COC(=O)c1cc2ccccc2c(-c2c(OC)c(C(=O)OC)cc3ccccc23)c1OC`, the inhibition was determined as 47.2%.
Consider `S=C(NCCCc1ccccc1)Nc1ccccc1Cl`, for which the inhibition was 57.8%.
As to `COc1cccc(-c2nc(OC(C)C)c3ccccc3n2)c1`, the inhibition worked out at 9.47%.
Consider `CN(C)c1ccc(/C=N/NC(=S)NCc2ccccc2)cc1`, for which the inhibition stood at 61.6%.
Regarding `CCc1ccc(C(O)(c2ccccc2OC)C(CN2CCOCC2)c2ccccc2)cc1` (centres undefined), the inhibition came to 59.4%.
The value for `CCOC(=O)C1CCCN(C(=O)CN2C(=O)/C(=C/c3ccc(OC)cc3)Oc3ccccc32)C1` (centres undefined) was 12.7%; that for `O=C(c1ccc(Cl)cc1)N1CCC(O)(CSc2ccc(Cl)cc2Cl)CC1` was 67.5%.
As to `Cc1ccc(C)c(N2CCN(C(=O)c3csc4ccccc34)CC2)c1`, the inhibition came to 32.5%.
As for `CC(C)=CCC/C(C)=C/Cc1c(O)ccc(C(=O)/C=C/c2ccc(O)cc2)c1O`, the inhibition came out at 64%.
For `CCCCCC1CC(CC(=O)NC(=S)Nc2ccccc2Cl)C(=O)O1` (centres undefined), the inhibition came to 18.2%.
As to `C(=C\c1ccccc1)/CN1CCN(c2ncnc3c2oc2ccccc23)CC1`, the inhibition stood at 32.1%.
Consider `NNC(=O)c1cc2c(N3CCC(Cc4ccccc4)CC3)ncnc2s1`, for which the inhibition is -16.4%.
In the case of `Cc1ccc(Oc2nc(CN3CCOCC3)nc3sc4c(c23)CCC(C)C4)cc1C` (centres undefined), the inhibition worked out at 20.7%.
The result for `C/C(CCC(C)C)=N\NC(=S)NCc1ccccc1` reads 48.8%; that for `CNC(=S)N1N=C(c2ccc(C)cc2)CC1c1ccc(Br)cc1` (centres undefined), 53.4%; that for `Cc1ccc(CCc2nnc(SCC(=O)Nc3cc(Cl)ccc3Cl)n2-c2ccccc2)o1`, 13%.
The result for `CC(C)[C@@H]1CC[C@@H](C)c2c(-c3ccccc3)n[nH]c21` reads 17.3%; that for `Cc1ccccc1NS(=O)(=O)c1cc(C(=O)N2CCc3ccccc3C2)ccc1C`, -2.04%; that for `CC(=O)C1=C(c2ccc(Br)cc2)C(=O)c2ccccc2C1=O`, 90.8%.
Take `c1ccc(Cn2c(SCc3cn4cccnc4n3)nnc2-c2ccco2)cc1`: the inhibition is 11%.
The value for `CCCCCCCCCc1nc2sc3c(c2c(=O)n1NC(=O)c1ccc([N+](=O)[O-])cc1)CC(C)(C)OC3` was 22.3%; that for `CC1(c2ccc(Cl)cc2Cl)OCC(Cn2ccnc2)O1` (centres undefined) was 42.9%.
With `CN(C(=O)Nc1ccc(Cl)c(Cl)c1)c1ccccc1C(=O)O`, the inhibition was found to be 71.5%.
With `Cc1ccc(NC(=S)Nc2cccc3cnccc23)c(C)c1`, the inhibition was determined as 56%.
The result for `O=C(Nc1ccccc1N1CCCCC1)c1ccccc1F` reads 47.6%.
For the compound `COC(=O)Cc1ccc(N(Cc2ccccc2F)S(=O)(=O)c2ccc(C)cc2)cc1`, the inhibition was 6.46%.
`COc1ccccc1N1CCN(CC(=O)Nc2ccc(Cl)c(C(F)(F)F)c2)CC1`: the inhibition came to 5.07%.
Regarding `COc1ccc(C2=NN(C(=O)c3cccs3)C(c3ccccc3OC)C2)cc1OC` (centres undefined), the inhibition was 57.3%.
For `CC(C)(C)N/N=C1\CC(c2ccccc2)Oc2ccccc21` (centres undefined), the inhibition is -2.57%.
With `CNc1oc(-c2ccc(Cl)cc2)nc1P(=O)(c1ccccc1)c1ccccc1`, the inhibition came out at 50.2%.
The result for `O=C(Nc1cccc(C(F)(F)F)c1)N(Cc1ccc(Cl)cc1)CC(O)C(F)(F)F` (centres undefined) reads 43.1%.

Broadly, the inhibition is the drop in the measured response relative to a control, in per cent.
